This passage reports switch fluorescence ratio results from the supplement of paper PMC10126150.

Values marked as one replicate rest on one cluster of the flow cell; about a third of the high ones do not repeat.

In the data set the test system is ATP. The experiment in a line: switch fluorescence ratio, 500 uM ATP over buffer (Cy3 cluster intensity, sum of 5 cycles each) (fold (ratio)); higher = stronger signal-on switching upon ATP binding; sequences stand for … in TCGTCGGCAGCGTCAGATGTGTATAAGAGACAGTTTTTTTTTTTTTTTTTTTTTTTTT…TC. The following applies: aptamer strand: ATP DNA aptamer (quencher-CACCTGGGGGAGTATTGCGGAGGAAGG + anchor), 100 nM annealed; ATP concentration: 500 uM; one replicate. In outline: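 Exposure to 500 uM ATP lasted 15 min at 22 °C before imaging, and a selection-buffer image was taken beforehand, for Cy3-labelled switching-strand clusters on a modified Illumina MiSeq flow-cell annealed to 100 nM quencher-labelled ATP aptamer. Five buffer/ATP cycles were run with NaOH stripping and re-annealing between them. The fluorescence ratio per cluster is summed target-cycle over summed buffer-cycle Cy3 intensity, averaged per switch-domain sequence. Clusters outside 100-1000 RFU were excluded.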
Take GTAAAAGCGT: the switch fluorescence ratio was determined as 0.974.
In the case of TATATTATAT, the switch fluorescence ratio is 1.01.
Regarding CGTTAACGGG, the switch fluorescence ratio worked out at 1.04.
In the case of TCCACGGAGC, the switch fluorescence ratio amounted to 1.06.
As for GGTGATCGG, the switch fluorescence ratio turned out to be 0.995.
GACAAGGGC: the switch fluorescence ratio was found to be 1.02.
Turning to CTAAGTCAGT, the switch fluorescence ratio came to 0.986.
Regarding AGACTGGTCA, the switch fluorescence ratio was found to be 0.958.
As to CCTCAAATAA, the switch fluorescence ratio is 4.08.
Consider AGAAGGATTT, for which the switch fluorescence ratio was 1.02.
On to GATGACTAGA, for which the switch fluorescence ratio stood at 1.02.
For the sequence TTGGCCGAGT, the switch fluorescence ratio came out at 0.991.
Take CTGTTTAGAA: the switch fluorescence ratio came out at 1.07.
As for ATGCACGGGA, the switch fluorescence ratio turned out to be 1.08.
To CTATGACTTC belongs 1.01; to GGGTTCGGAT, 1.02.
The figure for CGGTGGGAAA is 1.03; for CGAGAGCCTG it is 0.943; for CAATCCGCCA it is 3.79.
Take CAGCCTGTGC: the switch fluorescence ratio worked out at 1.03.
Consider AAAACGGGTC, for which the switch fluorescence ratio was 1.24.
For the sequence AGAGGGCCTT, the switch fluorescence ratio was 0.986.
TTGCGTGTTC: the switch fluorescence ratio stood at 1.16.
As for CATGGATGGA, the switch fluorescence ratio was 0.949.
Take AAAATAGCTG: the switch fluorescence ratio is 1.17.
In the case of TCACCGTATG, the switch fluorescence ratio was 1.07.
On to CATTTTGAAT, for which the switch fluorescence ratio turned out to be 1.03.
The figure for ACCAACGTGG is 1.09; for GCTACGTCTC it is 1.04.
The figure for CAATGTTACA is 0.993; for CGTACCACCA it is 1.12; for GGCTTTCACT it is 0.949.
Consider GTGGGGAAGA, for which the switch fluorescence ratio is 1.01.
As for CCGTGCGTCC, the switch fluorescence ratio is 1.34.
As to TCTAAGGAGC, the switch fluorescence ratio worked out at 1.05.
TGACGAGGCT: the switch fluorescence ratio stood at 1.12.
As for CAAATTTTGA, the switch fluorescence ratio amounted to 1.03.
Turning to ACAACCTAAG, the switch fluorescence ratio was 1.03.
Consider AGGCACTGAC, for which the switch fluorescence ratio was 1.11.
Regarding ATATGCTAAC, the switch fluorescence ratio worked out at 1.02.
Take AAAGTTGCAT: the switch fluorescence ratio was found to be 0.987.
As for TCTAGAGTCG, the switch fluorescence ratio came to 0.989.
Turning to GTTTCGAATG, the switch fluorescence ratio amounted to 0.972.
Take CGGGCGTTGG: the switch fluorescence ratio worked out at 0.926.
On to CTTGGAAGTC, for which the switch fluorescence ratio was determined as 1.05.
On to GTGGCCGCTA, for which the switch fluorescence ratio was 1.01.
AAAGATGGCG: the switch fluorescence ratio worked out at 0.932.
CAGAACATAG: the switch fluorescence ratio stood at 1.01.
ACGTCGGATG: the switch fluorescence ratio came out at 0.992.
Consider GACGGGGTTC, for which the switch fluorescence ratio amounted to 0.989.
The figure for GGGCGAATGA is 0.98; for GAGGCGTGCT it is 1; for TGTACCTAGC it is 1.05.
For CTCGGTAAGC, the switch fluorescence ratio turned out to be 1.19.
Regarding TCTGTGCGCT, the switch fluorescence ratio is 1.13.
To AATGAAGACT belongs 1.03; to GTTAACTCGC, 0.986; to TTGTTTAAA, 0.951.
Consider TGAGGCTCCT, for which the switch fluorescence ratio was 1.04.
Turning to GAAATTATGT, the switch fluorescence ratio was determined as 1.
With CAAGCCTGGT, the switch fluorescence ratio amounted to 1.
As to TACTTTTTTA, the switch fluorescence ratio came out at 0.895.
In the case of GATAATCGAC, the switch fluorescence ratio was determined as 1.02.
In the case of TATCGCATCC, the switch fluorescence ratio stood at 1.3.
To ATTGTCTTAG belongs 0.994; to TTGGAGT, 0.985; to TTCGCGTC, 1.01.
On to ACTCGAAAGG, for which the switch fluorescence ratio amounted to 1.07.
AGTAAAGAAC: the switch fluorescence ratio amounted to 1.06.
Turning to ACGACCCTGA, the switch fluorescence ratio amounted to 1.31.
As to CTCATTGCGG, the switch fluorescence ratio turned out to be 1.
The figure for GACCGGTATA is 0.99; for CCCAAATGGT it is 1.02.
In the case of TCCTAGTGAG, the switch fluorescence ratio was found to be 0.979.
To AAGTCACAAC belongs 1.05; to CGGAGGTCTC, 1.02; to ATATGAGTGG, 1.01.
As to TTGAAAAACG, the switch fluorescence ratio worked out at 1.06.
With CTGTCTAGGT, the switch fluorescence ratio stood at 0.974.
To TCAAGTCTGT belongs 0.998.
To GATTCATAGG belongs 0.982; to GGAGTATACG, 1.06; to TACTCGCAGC, 3.06.
Consider AAATCCGAA, for which the switch fluorescence ratio came to 1.01.
TTACCACGCC: the switch fluorescence ratio was 1.17.
With TTGGACTTCT, the switch fluorescence ratio amounted to 1.02.
On to ACTGGTGGCG, for which the switch fluorescence ratio was determined as 0.998.
To GTTTAGACCC belongs 1.06; to TATGGCGTTT, 1.01; to GGCTCTGGC, 0.98.
As for GGGTGTAGGC, the switch fluorescence ratio is 1.07.
In the case of CCCCGCGGCG, the switch fluorescence ratio was found to be 2.09.
To CTGGTACGCG belongs 0.993.
As for GCCCTCACAC, the switch fluorescence ratio was 1.12.
Regarding AGCGAATAGC, the switch fluorescence ratio is 1.02.
Take TTGCCCAGTT: the switch fluorescence ratio was found to be 1.37.
GCGTACAAGT: the switch fluorescence ratio is 0.985.
Regarding GATCCCCTGT, the switch fluorescence ratio was 0.996.
In the case of GTATGGGG, the switch fluorescence ratio worked out at 1.01.
Turning to AGGTCTAAGT, the switch fluorescence ratio is 0.985.
The figure for GAGATCCC is 1.02.
The figure for CACCTACCGG is 1.07; for TGGTAGGCAC it is 0.985; for TTAGCGGGAG it is 0.993.
To CGTGAGTCTA belongs 1.42; to GTACGAGGGT, 0.997.
In the case of CTATCTTAGA, the switch fluorescence ratio amounted to 0.998.
With GCAAGGCTCG, the switch fluorescence ratio worked out at 1.51.
Turning to CGCCGGACT, the switch fluorescence ratio is 1.04.
Regarding GCTCTTTCTG, the switch fluorescence ratio was found to be 1.03.
On to TTGATCGTTT, for which the switch fluorescence ratio is 0.957.
To GTCGAATGGC belongs 1.02; to TCGCGCTCCA, 1.54; to TACTGCGTTA, 0.998.
In the case of CTACGTTGAA, the switch fluorescence ratio is 0.998.
Turning to AGAATAGCCT, the switch fluorescence ratio turned out to be 1.07.
In the case of AGTCTACTAC, the switch fluorescence ratio is 1.09.
With CGTACGATAG, the switch fluorescence ratio is 1.
As to TTCATCCGTG, the switch fluorescence ratio was 1.31.
For CGAGACATAG, the switch fluorescence ratio is 0.944.
